From the RNAGym collection of RNA variant scans (doi:10.7554/elife.90254) come the findings set out here.

First the molecules themselves.
B1: LINE1-mini (parent)
chain: GGCAGAGCUCAACACAGCGUGGCAAAGUGGCUGUGGCUAGACUGCC

The source gives no read counts; variants with many changes may rest on few reads.

The variants in the data set derive from B1. Description: self-cleavage, relative activity (ratio to wild type); higher = more cleavage; in vitro, sequencing; the parent is a self-cleaving ribozyme.
For C3U C13A A26U C31A, the self-cleavage turned out to be 0.08. The result for A4C G7C A11U G33C reads 0.03; that for C3U C37A G40C, 0.12.

A4C C18A G27A G44C: the self-cleavage was 0.04. Regarding C3U G5A A6G, the self-cleavage turned out to be 0.2. The result for C3U G5C C10A A16C G40C reads 0.04; that for C3U G7U A11C A16U G17C C18G A41C, 0.02. In the case of A4C C31G G35C C37A U38C C45U, the self-cleavage turned out to be 0.04. The result for A4C G7U A12U G30A C31A U38A reads 1.91.

In the case of A4C A16U C18U G22A A24U G29A, the self-cleavage came out at 0.02. In the case of C3U C23U G27C U28A G40A, the self-cleavage is 0.02. As for A4C G19C G36C C37U, the self-cleavage was 0.03. The result for C3U U20C G35C C42A reads 0.04; that for C3U C13G U43A C45G, 0.05. The same measure for C3U G7C C23A U28A: 0.1. As for A4C C10A G33C G44U, the self-cleavage amounted to 0.02. For the variant C3U G5A C10A, the self-cleavage was found to be 0.08. For C3U G5A C10G, the self-cleavage was found to be 0.06.

On to A4C A24C A26G G33C G40U, for which the self-cleavage was determined as 0.03.

On to A4C C8U A12G C18A, for which the self-cleavage was found to be 1.05. The same measure for A4C A16U G21C A25C G36C U43A: 0.04; for A4C G22A G44C: 0.05; for C3U U20C C31A U43A: 0.1. As to A4C G40A U43G, the self-cleavage stood at 0.11. The same measure for A4G A6G U9A G27C U28C C45U: 0.08; for A4C G17C G40U: 0.28; for C3U U34A C37G: 0.01.

Turning to A4C C8A C13G C18A C23G A24G C45U, the self-cleavage came to 0.19. The result for A4C U9A A24G U38C reads 0.03.

On to A4C G17A U38A, for which the self-cleavage was determined as 0.02. The same measure for A4C C18U G29C A41U: 0.1; for A4C G36A G40U: 0.01; for C3U G5U G22U: 0.07. Turning to C3U C42A C46A, the self-cleavage was 0.1. On to A4C C18G G19A, for which the self-cleavage was found to be 0.04. The same measure for C3U U9A G22C: 0.06; for A4C A6U G7A: 0.47; for C3U G21A A25U A26C G40A C45A: 0.74. The same measure for A4C A6G C23U G30C G44U: 0.62; for A4C G21U C42A: 0.09; for A4C C31U G33U U34A: 0.09.

C3U G22C G33A: the self-cleavage stood at 0.14. The result for A4G A11U C23G reads 0.01. The same measure for A4C A16U U20G G29A: 0.05; for C3U G30U C31U C45A: 0.16; for C3U G5A U28G: 0.15. On to A4C A14G U28A G44A, for which the self-cleavage worked out at 0.03. The result for C3U G5C C46A reads 0.03; that for A4C G22A U34G, 0.06; that for C3U G5A A12U G21U C31U, 0.04. The same measure for A4C G30C C31A U32A: 0.24. The result for A4G A6G C10A C45G reads 0; that for A4G A11U G30C U32G G35A G36U C37A, 0.01; that for A4C G7U C15U G19U, 0.38.

Consider C3U G7A C13U C15A C23U A24C C31G G35U, for which the self-cleavage is 0.01. The result for C3U G7U A16G G33A G36A reads 0.04. A4G A6U C8G A16U: the self-cleavage was found to be 0.02. For the variant A4C A6G G30U G33C, the self-cleavage came to 0.02. On to A4C G5C C37A A39U, for which the self-cleavage was 0.11. Turning to A4C A6U G29C U32A C42U, the self-cleavage came out at 0.02. The result for A4C A6G A26U C45G reads 0.14; that for A4C C15U A26U, 0.01. The same measure for C3U C10G A12U G19U U20A G21A G36C: 0.02. As to C3U G17A U20C U32A, the self-cleavage turned out to be 0.05.

Regarding A4C C8A G35U, the self-cleavage came to 0.22. Regarding A4G A6U A12G U20A G22U C37U, the self-cleavage was 0.02. The result for A4G A11G G33A U34C reads 0.02; that for A4C A6C U43C, 0.03; that for C3U G7U U20G A25G U28G G33A, 0.12. The same measure for C3U U32G G44A: 0.34; for C3U G7C G17C C31G G33U C37U: 0.05. The result for C3U G7A A12U G21C U38C reads 0.25; that for C3U U20A G22C, 0.09; that for A4C C8A U38G, 0.11. In the case of C3U C18A G21C, the self-cleavage came to 0.47. The result for A4C A25G C46A reads 0.21; that for C3U G19C A25G U28A C37U, 0.01. The result for A4C C10A A14U C15U G17U U34G C37G reads 0.02; that for C3U U9A G21C A39G, 0.05. The result for A4G A11C G17C A25C A41U reads 0.01; that for A4C U9A C18A C37U, 1.14; that for C3U C23G C42U, 0.19. In the case of C3U G19U G30U, the self-cleavage was determined as 0.18. Turning to C3U G7C G19U G30A U38C, the self-cleavage turned out to be 0.14. The same measure for C3U G7A A14C C18G G40U C45G: 0.09; for A4C G5C A25C A26C G40U C46U: 0.11. On to A4G A11U A12U A14C G27U, for which the self-cleavage was 0.01. With C3U G33A C45U, the self-cleavage turned out to be 0.07. Consider C3U G5U C15U, for which the self-cleavage is 0.13. The result for C3U C23A U34G G44A reads 0.21. The same measure for C3U G30U C45A: 0.06; for A4C U34C C42G: 0.05.

For the variant A4C C15A A25U U43G C45U, the self-cleavage came out at 0.01. As for A4C C10A C18U G33A A39U, the self-cleavage was 0. The same measure for C3U G22U G30A: 0.75; for A4C A14U U38C: 0. Take A4C C8A G44C: the self-cleavage came out at 0.21.

As for A4C A14C U20A U43G C46U, the self-cleavage came out at 0.55. The same measure for C3U G22U A24U G36A: 0.43; for A4C C13A U34A C42G: 0.19; for A4C C15U G22U C37U A41U: 0.09. In the case of A4C C15U C18U G35A C37A, the self-cleavage amounted to 0.01. The same measure for A4C G30C G40C U43A: 0.02; for C3U G5U G7A C8A C10G G27U G35C: 0.03; for C3U U34C C42U: 0.34. The same measure for C3U G7A C8A G44U: 0.34; for C3U C23G G44U: 0.06.

Take A4C G5A G27C U34G: the self-cleavage was determined as 0.14.

Consider A4C C10A G19U C23U G40A, for which the self-cleavage was 0.

Regarding A4C A11G G21A G22U, the self-cleavage stood at 0.13. The same measure for C3U U20C G27C C46A: 0.03. The same measure for C3U G27U G30U: 0.55; for C3U C10U C13G A24U G30U A41U: 0.2; for C3U G5U G27U U34A: 0.05. In the case of A4C G5A A12U, the self-cleavage amounted to 0.14.

As for A4C U20C U34G, the self-cleavage was 0.03. Regarding C3U G17A A25C G27C, the self-cleavage is 0.06. Regarding A4C G33C C37G A41G, the self-cleavage was determined as 0. In the case of C3U G35U G36U C42A, the self-cleavage was found to be 0.31. The same measure for A4C G17U G19U C45G: 0.02. The same measure for C3U G40U U43A: 0.24; for A4C A11G C13U C15U: 0.04. A4C A24G A39U: the self-cleavage was 0.02. The result for A4C G7U C42U C46A reads 0.05; that for A4G A6C G21U, 0.38. The same measure for A4C C42U U43C: 0.17; for A4C G21A G22A U43A: 0.5. The same measure for C3U G7C G19U U43A: 0.15. Regarding A4C G19U G33C, the self-cleavage came out at 0.1. The same measure for C3U U38G A39U: 0.15; for A4C C10A G17A C37U C45A: 0.01; for A4C G5U C10G A25G G36C: 0.03. The same measure for A4G A6C U32A A39G G44A: 0.13. On to C3U G27C G33A C42U, for which the self-cleavage amounted to 0.08. C3U G7A A16U U28C C37G G44A: the self-cleavage is 0.01.

Consider C3U G5U U34C, for which the self-cleavage was 0.03. Take C3U G21U A25U U32A: the self-cleavage amounted to 0.06. The result for C3U C15G G19U A41G reads 0.18.

On to C3U C13A U43C, for which the self-cleavage came out at 0.07. Turning to C3U C15A A26G U32A C45G, the self-cleavage was determined as 0.07. The result for C3U G30A C31G G36U reads 0.08; that for C3U G44U C46G, 0.06; that for C3U G5U C46U, 0.04. Take C3U U9A G17A C23G A39U: the self-cleavage was 0.05. The result for A4C C10A G27C reads 0; that for C3U G17A C31A, 0.02; that for A4C G19C G21A, 0.05. As for C3U G5U G30A, the self-cleavage came to 0.15. The same measure for A4C A12U C15A U28G: 0.02; for C3U C15A G19C U20A C45U: 0.07. The result for A4C C10A A24U reads 0.05; that for C3U G5A A14U U20C G29C C31G G40A, 0.05. The result for C3U G7U G17C G33U C42A U43C reads 0.11; that for C3U C13U A16U G17C G29A, 0.14. As to C3U U9C A12G U32C, the self-cleavage stood at 0.07. The result for A4C G7A C10G A11U G22U C37G reads 0.01; that for C3U G22C C23G G44A, 0.13; that for C3U U9G C15U G36C, 0.07.

Take A4C U32A C37A C42A: the self-cleavage worked out at 0.07.

For C3U G7C G33U A41G C46U, the self-cleavage was found to be 0.06.

C3U G21U A25U: the self-cleavage was 0.34. For the variant C3U G17C G44C C45A C46G, the self-cleavage was found to be 0.05. The result for C3U G7C G33U reads 0.07; that for A4C C18G G40U C46A, 0.04. The same measure for A4C C13G A24U C42A: 0.01. The same measure for A4C G5U G30A G40A: 0.23.

C3U G5A G21U U32A: the self-cleavage was determined as 0.04.
